The whole screen tested about 2,700 compounds, of which about 160 (5.9%) showed an effect of 50% or more. The list shows a part of the results.
Biological target: Nonstructural protein 3 (Zika virus) (UniProt A0A024AXB9)
[1] = PRVABC59, Concentration 15.0 uM, Number of replicates 1.0
[2] = PRVABC59, Concentration 50.0 uM, Number of replicates 1.0

UniProt A0A024AXB9, sequence (A0A024AXB9 as listed by the source): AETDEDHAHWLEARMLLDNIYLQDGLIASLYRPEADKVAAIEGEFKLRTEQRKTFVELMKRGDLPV

N#Cc1ccc(C[C@H](NC(=O)c2ccccc2)C(=O)N2CCC[C@@H](CNC(=N)N)C2)cc1
inhibition (PRVABC59, Concentration 49.5 uM, Number of replicates 2.0, Standard deviation 1.2619096875454 %): 6.42%
inhibition (PRVABC59, Concentration 99.01 uM, Number of replicates 2.0, Standard deviation 0.8863178784531737 %): 9.58%
inhibition (PRVABC59, Concentration 198.0 uM, Number of replicates 2.0, Standard deviation 0.09141347984703638 %): 16.2%

COCCn1cccc(C(=O)Nc2ccncc2C)c1=O
inhibition (PRVABC59, Concentration 49.5 uM, Number of replicates 2.0, Standard deviation 3.2021605317736013 %): -1.95%
inhibition (PRVABC59, Concentration 99.01 uM, Number of replicates 2.0, Standard deviation 3.047865028692948 %): -0.604%
inhibition (PRVABC59, Concentration 198.0 uM, Number of replicates 2.0, Standard deviation 2.253137351822617 %): -2.31%

COc1ccc(C[C@H]2c3cc(OC)c(OC)cc3CCN2C(=O)c2cc(Cl)ccc2NS(=O)(=O)c2ccc(Oc3ccccc3Cl)cc2)cc1OC
inhibition [1]: 26.2%

O=Cc1ccc(N2CCC(C(=O)Nc3ccncc3Br)CC2)cc1
inhibition [2]: 20.5%

O=Cc1ccc(N2CCC(C(=O)N3CCCC[C@@H]3Cc3ccccc3)CC2)cc1
inhibition [2]: 27.1%

O=Cc1ccc(N2CCC(C(=O)NCCCN3CCS(=O)(=O)CC3)CC2)cc1
inhibition [2]: 26.6%

CC(C)(CO)NC(=O)c1cc(Cl)cc(NC(=O)CCNc2cc(Cl)cc(Cl)c2)c1
inhibition (PRVABC59, Concentration 49.5 uM, Number of replicates 2.0, Standard deviation 3.1830122701910106 %): 8.57%
inhibition (PRVABC59, Concentration 99.01 uM, Number of replicates 2.0, Standard deviation 2.527205284312771 %): 8.93%
inhibition (PRVABC59, Concentration 198.0 uM, Number of replicates 2.0, Standard deviation 2.537420668867447 %): 6%

COc1cc(Cl)c(C)cc1NC(=O)C1CCN(c2ccc(C=O)cc2)CC1
inhibition [2]: 25.3%

O=C(c1cc(Cl)ccc1NS(=O)(=O)c1ccc(Oc2ccccc2Cl)cc1)N1CCO[C@@H](c2ccccc2)C1
inhibition [1]: 14.5%

O=Cc1ccc(N2CCC(C(=O)NC[C@H](c3cccnc3)N3CCOCC3)CC2)cc1
inhibition [2]: 22.7%

CNC(=O)c1cc(Cl)ccc1NC(=O)CCNC(=O)c1cccc(Cl)c1
inhibition (PRVABC59, Concentration 49.5 uM, Number of replicates 2.0, Standard deviation 1.8121513776647062 %): -0.55%
inhibition (PRVABC59, Concentration 99.01 uM, Number of replicates 2.0, Standard deviation 2.907205611612388 %): 1.16%
inhibition (PRVABC59, Concentration 198.0 uM, Number of replicates 2.0, Standard deviation 3.029786390905291 %): 4.5%

O=Cc1ccc(N2CCC(C(=O)N3CCN(C(=O)c4ccccc4Cl)CC3)CC2)cc1
inhibition [2]: 24.6%

CN(C)CCN(Cc1ccccc1)C(=O)c1cc(Cl)ccc1NS(=O)(=O)c1ccc(Oc2ccccc2Cl)cc1
inhibition [1]: 15.1%

O=Cc1ccc(N2CCC(C(=O)Nc3ccc(C(F)(F)F)cc3)CC2)cc1
inhibition [2]: 24.6%

O=C(c1cc(Cl)ccc1NS(=O)(=O)c1ccc(Oc2ccccc2Cl)cc1)N1CCN(C/C=C/c2ccccc2)CC1
inhibition [1]: 11.5%

O=C(Nc1ccc([N+](=O)[O-])c2ccccc12)c1cc(Cl)ccc1NS(=O)(=O)c1ccc(Oc2ccccc2Cl)cc1
inhibition [1]: 22.7%

C#CCN(Cc1ccc(C)cc1)C(=O)c1cc(Cl)ccc1NS(=O)(=O)c1ccc(Oc2ccccc2Cl)cc1
inhibition [1]: 26%

O=C(c1cc(Cl)ccc1NS(=O)(=O)c1ccc(Oc2ccccc2Cl)cc1)N1CCCC[C@H]1C(F)(F)F
inhibition [1]: 22.3%

O=C(c1cc(Cl)ccc1NS(=O)(=O)c1ccc(Oc2ccccc2Cl)cc1)N1CCN(C(=O)N2CCCCC2)CC1
inhibition [1]: 2.28%

O=C(c1cc(Cl)ccc1NS(=O)(=O)c1ccc(Oc2ccccc2Cl)cc1)N1CCN(CCc2ccncc2)CC1
inhibition [1]: 6.55%

c1cnc(N2CCOCC2)c(CN2CCC(c3c[nH]c4cccnc34)CC2)c1
inhibition (PRVABC59, Concentration 49.5 uM, Number of replicates 2.0, Standard deviation 3.054703307448636 %): -2.07%
inhibition (PRVABC59, Concentration 99.01 uM, Number of replicates 2.0, Standard deviation 3.2076979533183563 %): -1.91%
inhibition (PRVABC59, Concentration 198.0 uM, Number of replicates 2.0, Standard deviation 3.2803054039927106 %): -0.506%

CNC(=O)c1cn(C[C@H]2CCCN2C(=O)c2cccc3ncsc23)nn1
inhibition (PRVABC59, Concentration 49.5 uM, Number of replicates 2.0, Standard deviation 0.4404705814208952 %): -0.654%
inhibition (PRVABC59, Concentration 99.01 uM, Number of replicates 2.0, Standard deviation 0.04041014547115413 %): -1.78%
inhibition (PRVABC59, Concentration 198.0 uM, Number of replicates 2.0, Standard deviation 0.19194812776770936 %): -2.01%

CC(C)Sc1ccccc1NC(=O)c1cc(Cl)ccc1NS(=O)(=O)c1ccc(Oc2ccccc2Cl)cc1
inhibition [1]: 28.1%

O=Cc1ccc(N2CCC(C(=O)NCC(=O)c3ccc([N+](=O)[O-])cc3)CC2)cc1
inhibition [2]: 35.1%

CCN(C(=O)c1cc(Cl)ccc1NS(=O)(=O)c1ccc(Oc2ccccc2Cl)cc1)C1C2CC3CC(C2)CC1C3 (centres undefined)
inhibition [1]: 18.8%

CN1CCCC[C@@H](CNCc2nnc3ccccn23)C1=O
inhibition (PRVABC59, Concentration 49.5 uM, Number of replicates 2.0, Standard deviation 0.5296867563942403 %): -4.42%
inhibition (PRVABC59, Concentration 99.01 uM, Number of replicates 2.0, Standard deviation 1.7504892738878128 %): -3.78%
inhibition (PRVABC59, Concentration 198.0 uM, Number of replicates 2.0, Standard deviation 0.03026767496440153 %): -3.49%

O=Cc1ccc(N2CCC(C(=O)N[C@H]3Cc4ccc(Br)cc4C3)CC2)cc1
inhibition [2]: 0.902%

Cc1ccc(C)c(N2CCN(C(=O)c3cc(Cl)ccc3NS(=O)(=O)c3ccc(Oc4ccccc4Cl)cc3)CC2)c1
inhibition [1]: 4.76%

O=C(c1cc(Cl)ccc1NS(=O)(=O)c1ccc(Oc2ccccc2Cl)cc1)N1CCC(O)(Cc2ccccn2)CC1
inhibition [1]: 4.57%

Cc1cc(CO)c2cccc(NCCc3c(C)n[nH]c3C)c2n1
inhibition (PRVABC59, Concentration 49.95 uM, Number of replicates 2.0, Standard deviation 0.1462994662014392 %): 10.8%
inhibition (PRVABC59, Concentration 99.9 uM, Number of replicates 2.0, Standard deviation 0.8122149522265316 %): 16.7%

Cc1cccc(NC(=O)CNC(=O)C2CCN(c3ccc(C=O)cc3)CC2)c1C
inhibition [2]: 21%

Nc1ccc(Cl)c2cccnc12
inhibition (PRVABC59, Concentration 99.9 uM, Number of replicates 2.0, Standard deviation 7.433905478836123 %): -9.18%

CCOC(=O)[C@H]1CCCN(C(=O)c2cc(Cl)ccc2NS(=O)(=O)c2ccc(Oc3ccccc3Cl)cc2)C1
inhibition [1]: 14.8%

Cc1nn(Cc2cccnc2F)cc1C1CCNCC1
inhibition (PRVABC59, Concentration 49.5 uM, Number of replicates 2.0, Standard deviation 6.869655819998887 %): -4.33%
inhibition (PRVABC59, Concentration 99.01 uM, Number of replicates 2.0, Standard deviation 4.318179977943179 %): -3.71%
inhibition (PRVABC59, Concentration 198.0 uM, Number of replicates 2.0, Standard deviation 4.43995469875831 %): 0.223%

c1cnc2c(C3CCN(Cc4ccc5[nH]cnc5c4)CC3)c[nH]c2c1
inhibition (PRVABC59, Concentration 49.5 uM, Number of replicates 2.0, Standard deviation 2.816135776094685 %): 1.64%
inhibition (PRVABC59, Concentration 99.01 uM, Number of replicates 2.0, Standard deviation 1.9941147484327908 %): 7.38%
inhibition (PRVABC59, Concentration 198.0 uM, Number of replicates 2.0, Standard deviation 0.19707731493778816 %): 19.3%

NCc1cccc(NC(=O)[C@H]2CC(F)(F)CN2C(=O)OCc2ccccc2)c1
inhibition (PRVABC59, Concentration 49.5 uM, Number of replicates 2.0, Standard deviation 3.1999184669467913 %): 1.62%
inhibition (PRVABC59, Concentration 99.01 uM, Number of replicates 2.0, Standard deviation 2.289731058014261 %): 3.57%
inhibition (PRVABC59, Concentration 198.0 uM, Number of replicates 2.0, Standard deviation 2.9691301638149588 %): 6.61%

CNC(=O)c1cc(OC)ccc1NS(=O)(=O)c1ccc(Oc2ccccc2Cl)cc1
inhibition (PRVABC59, Concentration 49.5 uM, Number of replicates 2.0, Standard deviation 3.2128953973095986 %): -4.51%

O=C(O)c1cccc(NC(=O)c2ccc3[nH]ccc3c2)c1
inhibition (PRVABC59, Concentration 49.5 uM, Number of replicates 2.0, Standard deviation 1.6936191403460628 %): 1.68%
inhibition (PRVABC59, Concentration 99.01 uM, Number of replicates 2.0, Standard deviation 1.548333263704462 %): 5.18%
inhibition (PRVABC59, Concentration 198.0 uM, Number of replicates 2.0, Standard deviation 1.023228375505538 %): 11.9%

O=Cc1ccc(N2CCC(C(=O)N3CCN(C(=O)C4CC4)CC3)CC2)cc1
inhibition [2]: 23.6%

Cc1cnccc1NC(=O)c1cn(C)c(=O)n(C)c1=O
inhibition (PRVABC59, Concentration 49.5 uM, Number of replicates 2.0, Standard deviation 1.1484125234841103 %): -2.08%
inhibition (PRVABC59, Concentration 99.01 uM, Number of replicates 2.0, Standard deviation 0.8202945030860701 %): -3.34%
inhibition (PRVABC59, Concentration 198.0 uM, Number of replicates 2.0, Standard deviation 1.3175983184828441 %): -4.92%

CN(C[C@H](O)c1ccc(O)cc1)C(=O)C1CCN(c2ccc(C=O)cc2)CC1
inhibition [2]: 23.6%

Cn1ccnc1CC(=O)N[C@@]1(C)CCCN(C(=O)c2cc(F)c3[nH]nnc3c2)C1
inhibition (PRVABC59, Concentration 49.5 uM, Number of replicates 2.0, Standard deviation 0.8238740770769488 %): 1.04%
inhibition (PRVABC59, Concentration 99.01 uM, Number of replicates 2.0, Standard deviation 0.8782808959106313 %): 2.48%
inhibition (PRVABC59, Concentration 198.0 uM, Number of replicates 2.0, Standard deviation 1.7280629357951662 %): 3.5%

Source: ChEMBL document CHEMBL5606458, “ASAP - ZIKV NS2B-NS3 protease fluorescence single point” (2024)
